Assay results taken from paper PMC4336329 (PLoS ONE, 2015).
The whole screen tested about 310,000 compounds, of which about 14,000 (4.5%) showed an effect of 50% or more. Effects have a minus sign here. The list shows a part of the results.
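Further: peak tail current of the secondary pulse compared with the same well before compound.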

These molecules were tested against human ether-à-go-go-related gene (hERG) potassium channel (human, UniProt Q12809) (assay: primary screen, population patch clamp on CHO cells stably expressing hERG).
Sequence of human ether-à-go-go-related gene (hERG) potassium channel (Q12809 whole entry, looked up): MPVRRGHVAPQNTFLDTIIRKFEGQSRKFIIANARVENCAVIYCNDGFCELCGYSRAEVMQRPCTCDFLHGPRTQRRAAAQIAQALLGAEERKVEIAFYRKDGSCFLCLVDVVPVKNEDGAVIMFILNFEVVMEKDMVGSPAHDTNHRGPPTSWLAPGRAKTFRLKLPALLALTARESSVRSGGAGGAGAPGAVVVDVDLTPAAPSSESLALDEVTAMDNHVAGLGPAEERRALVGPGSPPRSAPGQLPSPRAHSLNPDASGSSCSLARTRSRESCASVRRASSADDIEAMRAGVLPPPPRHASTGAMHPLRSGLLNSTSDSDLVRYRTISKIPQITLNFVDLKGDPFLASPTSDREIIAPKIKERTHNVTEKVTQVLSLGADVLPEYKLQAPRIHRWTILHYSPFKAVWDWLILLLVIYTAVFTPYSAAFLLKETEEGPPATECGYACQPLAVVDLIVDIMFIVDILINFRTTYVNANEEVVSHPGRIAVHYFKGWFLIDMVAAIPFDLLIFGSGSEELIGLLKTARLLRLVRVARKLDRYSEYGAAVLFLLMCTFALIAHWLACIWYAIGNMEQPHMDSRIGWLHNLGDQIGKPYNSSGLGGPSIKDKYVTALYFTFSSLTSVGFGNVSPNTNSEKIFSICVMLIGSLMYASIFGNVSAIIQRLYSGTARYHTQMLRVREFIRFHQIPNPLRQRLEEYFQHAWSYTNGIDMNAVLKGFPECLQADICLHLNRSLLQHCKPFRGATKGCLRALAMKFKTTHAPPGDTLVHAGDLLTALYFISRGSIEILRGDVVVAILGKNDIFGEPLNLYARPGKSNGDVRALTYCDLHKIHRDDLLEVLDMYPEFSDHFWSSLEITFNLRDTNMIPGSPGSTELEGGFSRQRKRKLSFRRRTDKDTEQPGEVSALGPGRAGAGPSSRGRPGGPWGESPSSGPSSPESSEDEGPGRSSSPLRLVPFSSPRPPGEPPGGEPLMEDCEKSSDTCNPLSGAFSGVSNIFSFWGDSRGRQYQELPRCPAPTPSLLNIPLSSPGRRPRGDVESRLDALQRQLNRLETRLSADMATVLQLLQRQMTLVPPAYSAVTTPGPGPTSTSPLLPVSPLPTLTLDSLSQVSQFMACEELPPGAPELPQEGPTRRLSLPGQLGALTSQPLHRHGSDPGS
In the case of `CC[C@H]1OC(=O)[C@H](C)[C@@H](O[C@H]2C[C@@](C)(OC)[C@@H](O)[C@H](C)O2)[C@H](C)[C@@H](O[C@@H]2O[C@H](C)C[C@H](N(C)C)[C@H]2O)[C@](C)(O)C[C@@H](C)[C@@H]2N[C@@H](COCCOC)O[C@H]([C@H]2C)[C@]1(C)O`, the “hERG current change (%, negative = inhibition) at 10uM” value was 16.3%.
`CN(C(=O)COC(=O)Cc1c[nH]c2ccccc12)c1c(N)n(Cc2ccccc2)c(=O)[nH]c1=O` was tested, and the “hERG current change (%, negative = inhibition) at 10uM” value was -6.09%.
In the case of `Cc1cc(-c2nnc(SCC(=O)c3ccc(Cl)cc3)o2)no1`, the “hERG current change (%, negative = inhibition) at 10uM” value was -28.4%.
With `CC(C(=O)N1CCC(C(N)=O)CC1)N(c1ccc(Oc2ccccc2)cc1)S(C)(=O)=O` (stereo not shown) the “hERG current change (%, negative = inhibition) at 10uM” value was -1.01%.
In the case of `Cn1c(=O)c2c(nc(SCC(=O)NCC3CCCO3)n2Cc2ccc(F)cc2)n(C)c1=O` (stereo not shown), the “hERG current change (%, negative = inhibition) at 10uM” value was -41.6%.
`CCOc1ccccc1-n1c(O)c(C=NCCCN(CC)CC)c(=O)[nH]c1=O` was tested, and the “hERG current change (%, negative = inhibition) at 10uM” value was 6.17%.
In the case of `COc1ccccc1C(C)NC(=O)c1ccc(C)o1` (stereo not shown), the “hERG current change (%, negative = inhibition) at 10uM” value was 2.9%.
With `CCOC(=O)C1CCCN(/C=C2\SC(=S)N(CC)C2=O)C1` (stereo not shown) the “hERG current change (%, negative = inhibition) at 10uM” value was -21.8%.
For `C=CCN1C(=O)/C(=C/c2cc(C)n(-c3cccnc3)c2C)C(=O)NC1=S`, the “hERG current change (%, negative = inhibition) at 10uM” value was 16.9%.
In the case of `COCC(=O)N/N=C/c1c(C)[nH]n(-c2ccccc2)c1=O`, the “hERG current change (%, negative = inhibition) at 10uM” value was 14%.
With `O=C1C=C(c2cccc(Br)c2)C[C@@H](c2ccc3c(c2)OCO3)C1` the “hERG current change (%, negative = inhibition) at 10uM” value was 1.27%.
`O/N=C/c1ccc2cccc(O)c2n1` was tested, and the “hERG current change (%, negative = inhibition) at 10uM” value was -21.5%.
For `O=C(NCC(c1cccs1)N1CCOCC1)c1cc(=O)[nH]c2ccccc12` (stereo not shown), the “hERG current change (%, negative = inhibition) at 10uM” value was 1.68%.
`Cc1cc(=O)oc2cc(NC(=O)c3cccc(Br)c3)ccc12` was tested, and the “hERG current change (%, negative = inhibition) at 10uM” value was 18.2%.
In the case of `CC1(C)CC(=O)C=C(c2ccc(F)cc2OCc2ccccc2)C1`, the “hERG current change (%, negative = inhibition) at 10uM” value was 15.1%.
`O=C(COC(=O)/C=C/c1ccc(Cl)cc1)NC1CCCC1` was tested, and the “hERG current change (%, negative = inhibition) at 10uM” value was -2.27%.
For `CCc1nc(Nc2ccc(OC)cc2OC)c2oc3ccccc3c2n1.Cl`, the “hERG current change (%, negative = inhibition) at 10uM” value was 19.5%.
For `COC(=O)c1cc(S(=O)(=O)NCC2CCN(Cc3ccc(F)cc3)CC2)cn1C`, the “hERG current change (%, negative = inhibition) at 10uM” value was -19.6%.
For `CCCCCCOC(=O)C(C#N)c1nc2ccccc2nc1N1CCCCC1` (stereo not shown), the “hERG current change (%, negative = inhibition) at 10uM” value was 1.37%.
`COC(=O)CNC(c1ccccc1)c1cc(Br)ccc1NS(=O)(=O)c1ccccc1` (stereo not shown) was tested, and the “hERG current change (%, negative = inhibition) at 10uM” value was -2.57%.
In the case of `NS(=O)(=O)c1ccc(CCNC(=O)NC2(C(F)(F)F)Oc3ccccc3O2)cc1`, the “hERG current change (%, negative = inhibition) at 10uM” value was 6.93%.
`Cc1noc(C)c1S(=O)(=O)N1CCN(c2ccc(Cl)cc2)CC1` was tested, and the “hERG current change (%, negative = inhibition) at 10uM” value was -6.26%.
`Cc1ccnc(NC(=O)Cn2c(=O)oc3ccccc32)c1` was tested, and the “hERG current change (%, negative = inhibition) at 10uM” value was -0.0688%.
With `CCCNC(=O)c1ccccc1NC(=O)CN(c1ccccc1OCC)S(C)(=O)=O` the “hERG current change (%, negative = inhibition) at 10uM” value was 4.75%.
With `Cc1nc(NC(=O)c2ccccc2[N+](=O)[O-])sc1C(=O)N(C)C` the “hERG current change (%, negative = inhibition) at 10uM” value was 8.96%.
With `N#Cc1ccc(C(=O)N2CCN(C(=O)C3CCCO3)CC2)cc1` (stereo not shown) the “hERG current change (%, negative = inhibition) at 10uM” value was -0.959%.
`c1ccc2sc(NC3=NCN(C4CCCCCC4)CN3)nc2c1` was tested, and the “hERG current change (%, negative = inhibition) at 10uM” value was -9.17%.
In the case of `Cc1ccc(S(=O)(=O)c2cc3c(=O)n4ccccc4nc3n(CCCN3CCOCC3)c2=N)cc1C`, the “hERG current change (%, negative = inhibition) at 10uM” value was -36.8%.
With `O=C(c1cc(COc2ccc(F)cc2F)on1)N1CC[C@@H]2CCCC[C@H]2C1` the “hERG current change (%, negative = inhibition) at 10uM” value was -12.1%.
For `COc1ccc(C2=COc3ccccc3C(=O)N2)cc1`, the “hERG current change (%, negative = inhibition) at 10uM” value was -3.93%.
With `CCOC(=O)CN(C(=O)Cn1nnc2ccccc21)C(C(=O)NCCOC)c1ccccc1C` (stereo not shown) the “hERG current change (%, negative = inhibition) at 10uM” value was 8.58%.
`Cc1ccc(NC(=O)c2nnn(-c3cccc(C(F)(F)F)c3)c2N)cc1` was tested, and the “hERG current change (%, negative = inhibition) at 10uM” value was -6.18%.
In the case of `COc1ccc2[nH]c(C)c(CCNC(=S)Nc3cc(C)ccc3C)c2c1`, the “hERG current change (%, negative = inhibition) at 10uM” value was -8.03%.
For `CC(=O)c1ccc(NC(=O)NNS(=O)(=O)c2ccc(F)cc2)cc1`, the “hERG current change (%, negative = inhibition) at 10uM” value was 12.8%.
`COC(=O)c1nn(-c2ccc(F)cc2)ccc1=O` was tested, and the “hERG current change (%, negative = inhibition) at 10uM” value was 8.12%.
For `Cc1cc(C(=O)N/N=C/C=C/c2ccc([N+](=O)[O-])cc2)n[nH]1`, the “hERG current change (%, negative = inhibition) at 10uM” value was -53%.
`Cc1ccc(-c2nc3cnccn3c2Nc2ccccc2)o1` was tested, and the “hERG current change (%, negative = inhibition) at 10uM” value was -5.02%.
For `CCOC(=O)C1=C(CC)OC(N)=C(C#N)C1c1ccc(OC)c(C)c1OC` (stereo not shown), the “hERG current change (%, negative = inhibition) at 10uM” value was -8.95%.
With `Oc1cccc(C=NCc2ccccc2)c1` the “hERG current change (%, negative = inhibition) at 10uM” value was 8.22%.
`CCC(C)N(C)C(=O)c1cc2ccccc2c(-c2ccccc2Cl)n1` (stereo not shown) was tested, and the “hERG current change (%, negative = inhibition) at 10uM” value was -39.3%.
With `Cc1ccc(CNC(=O)COc2ccc(S(=O)(=O)N3CCCC3)cc2)cc1` the “hERG current change (%, negative = inhibition) at 10uM” value was 24.1%.
With `O=C(N/N=C/c1ccc([N+](=O)[O-])o1)c1ccc(NS(=O)(=O)c2cccs2)cc1` the “hERG current change (%, negative = inhibition) at 10uM” value was -12.8%.
`CCC1(c2ccccc2)NC(=O)N(CC(=O)Nc2cccc(S(=O)(=O)N3CCCC3)c2)C1=O` (stereo not shown) was tested, and the “hERG current change (%, negative = inhibition) at 10uM” value was -3.81%.
In the case of `CCOC(=O)Nc1ccc2c(c1)N(C(=O)CN)c1ccccc1CC2`, the “hERG current change (%, negative = inhibition) at 10uM” value was -6.64%.
In the case of `Cc1ccc(NC(=O)CN2C(=O)NC3(CCc4ccccc43)C2=O)cc1Cl` (stereo not shown), the “hERG current change (%, negative = inhibition) at 10uM” value was 5.13%.
For `CCOC(=O)C1(Cc2cccc(F)c2)CCN(Cc2ccc(COC)o2)CC1`, the “hERG current change (%, negative = inhibition) at 10uM” value was -23.5%.
For `CCc1ccccc1S(=O)(=O)Cc1ccc(C(=O)NCCc2ccccc2)o1`, the “hERG current change (%, negative = inhibition) at 10uM” value was -37.5%.
With `Nc1ccc(C(=O)OCC(=O)NC(=O)c2ccccc2)cc1[N+](=O)[O-]` the “hERG current change (%, negative = inhibition) at 10uM” value was 10.4%.
With `COc1cc(/C=C2/C(=N)N3C(c4ccccc4)=CSC3=NC2=O)ccc1OCC(=O)O` the “hERG current change (%, negative = inhibition) at 10uM” value was 7.9%.
In the case of `CCCOc1ccc(-c2c(C(=O)N/N=C(\C)c3cccs3)nnn2-c2nonc2N)cc1`, the “hERG current change (%, negative = inhibition) at 10uM” value was 8.59%.
`O=C(O)CCCNc1cc(N2CCN(C(=O)c3ccco3)CC2)c2noc3c2c1C(=O)c1ccccc1-3` was tested, and the “hERG current change (%, negative = inhibition) at 10uM” value was 19%.
With `CC(=O)NC1CCC(C(=O)O)(c2ccccc2)C1` (stereo not shown) the “hERG current change (%, negative = inhibition) at 10uM” value was 3.43%.
